Screen size: about 350,000 compounds; about 31,000 (8.9%) were called active. Inconclusive results, whose numbers are uncertain, are shown with a selection of clear calls. The call rests on the fitted dose curve; in most records, active means well fitted inhibition curve with a large enough effect; inconclusive means small, poorly fitted or top-dose-only effect; inactive means no such curve, though single readings can be large or run the other way. Potencies beside an inconclusive call are fits to weak or partial responses and may not hold up.
target: Histone-lysine N-methyltransferase EHMT2 (Homo sapiens) (UniProt Q96KQ7); experiment: qHTS Assay for Inhibitors of Histone Lysine Methyltransferase G9a; settings: G9a H3K9 monomethylation, AlphaScreen, 2 h; activity, negative = inhibition: at 59 µM (top of the series) unless noted; further: nearly all actives have a fitted effect of over 75% in size
Summary of the method: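 AlphaScreen detection with an anti-monomethyl H3K9 antibody quantified product after a 2 h room-temperature reaction containing 500 nM biotinylated H3K9 peptide, 20 µM SAM and 20 nM enzyme, which had been preincubated 15 min with compound.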
On the % scale 0 is the no-effect control and ±100 the full control effect; potency means the concentration at half of the fitted maximal effect; tags describe the fitted curve by direction and shape.

UniProt Q96KQ7, sequence (Q96KQ7 whole entry, looked up): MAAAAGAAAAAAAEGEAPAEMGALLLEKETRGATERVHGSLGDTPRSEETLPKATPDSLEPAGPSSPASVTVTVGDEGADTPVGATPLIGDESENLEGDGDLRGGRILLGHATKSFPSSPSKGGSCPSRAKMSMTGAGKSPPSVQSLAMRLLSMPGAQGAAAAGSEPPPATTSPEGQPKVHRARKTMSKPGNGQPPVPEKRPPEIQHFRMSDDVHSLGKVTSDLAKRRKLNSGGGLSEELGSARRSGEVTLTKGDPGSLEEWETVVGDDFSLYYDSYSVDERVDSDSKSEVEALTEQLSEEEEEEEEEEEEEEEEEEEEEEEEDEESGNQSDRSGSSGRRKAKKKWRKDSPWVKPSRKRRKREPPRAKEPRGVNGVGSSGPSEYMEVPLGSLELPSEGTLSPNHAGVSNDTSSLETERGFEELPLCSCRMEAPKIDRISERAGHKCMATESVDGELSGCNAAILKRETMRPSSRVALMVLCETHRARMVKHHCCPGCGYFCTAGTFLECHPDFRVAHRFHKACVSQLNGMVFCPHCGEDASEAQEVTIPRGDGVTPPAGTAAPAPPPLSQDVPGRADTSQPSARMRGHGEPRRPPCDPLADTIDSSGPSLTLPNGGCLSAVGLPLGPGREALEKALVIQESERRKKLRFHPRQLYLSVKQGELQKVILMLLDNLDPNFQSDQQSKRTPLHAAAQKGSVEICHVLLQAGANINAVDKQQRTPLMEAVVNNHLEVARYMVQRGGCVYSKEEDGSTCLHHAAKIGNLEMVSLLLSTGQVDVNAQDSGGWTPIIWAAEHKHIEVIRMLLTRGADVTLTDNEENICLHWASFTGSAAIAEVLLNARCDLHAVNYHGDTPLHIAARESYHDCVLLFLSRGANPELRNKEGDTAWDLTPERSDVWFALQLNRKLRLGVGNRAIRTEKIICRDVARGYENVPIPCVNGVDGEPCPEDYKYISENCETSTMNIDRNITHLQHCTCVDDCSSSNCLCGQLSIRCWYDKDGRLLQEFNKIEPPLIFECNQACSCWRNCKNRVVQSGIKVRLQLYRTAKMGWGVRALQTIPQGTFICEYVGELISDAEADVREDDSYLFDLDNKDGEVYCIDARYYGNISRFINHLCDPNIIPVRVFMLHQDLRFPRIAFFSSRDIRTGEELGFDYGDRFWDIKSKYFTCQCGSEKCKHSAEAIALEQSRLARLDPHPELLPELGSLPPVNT

Row | SMILES | activity, negative = inhibition | Potency
1 | C#CCOCCOCCOCCNc1nc(N2CCN(C(=O)[C@H]([C@@H](C)CC)n3cc([C@@H](N)Cc4ccc(O)cc4)nn3)CC2)nc(N2CCN(C(=O)[C@H](CCCCN)n3cc([C@@H](N)CO)nn3)CC2)n1 | inconclusive: -91% [inhibitor] | –
2 | Cc1ccc(-n2c(C)csc2=N)cc1 | – | inconclusive: 14.1 µM [inhibitor, partial curve, poor fit]
3 | CCN(CC)C(=O)C(=O)c1cccn1-c1cccc(OC)c1C#N | inactive: 5.41% [at 102 µM] | –
4 | O=C(CCSc1nc(-c2ccco2)cc(C(F)(F)F)n1)NCc1cccs1 | – | inconclusive: 39.8 µM [inhibitor, single point]
5 | CCOc1ccc(N2C(=O)/C(=C/c3ccco3)N(C)C2=S)cc1 | – | active: 10 µM
6 | Cc1ccccc1Nc1c(-c2ccc(N3CCOCC3)cc2)nc2ccc(Br)cn12 | – | active: 7.08 µM
7 | O=C(Nc1cc(S(=O)(=O)N2CCOCC2)ccc1N1CCCC1)c1ccc(Cl)cc1 | – | active: 1.78 µM
8 | CCCCCCC(=O)Nc1nc(C)c(-c2csc(Nc3cc(Cl)ccc3C)n2)s1 | inactive: 42.1% [at 0.501 µM] | –
9 | Cc1ccc(-c2csc3ncnc(N4CCN(c5ccccc5O)CC4)c23)cc1 | – | inconclusive: 79.4 µM [inhibitor, single point]
10 | COc1cccc(Cn2cc(C(=O)c3ccc(Cl)cc3)c(=O)c3ccccc32)c1 | inactive: -3.69% | –
11 | O=S(=O)(NC1CCCCC1)c1ccc(S(=O)(=O)N2CCN3CCCC3C2)cc1 (stereo not drawn) | – | inconclusive: 89.1 µM [inhibitor, single point]
12 | Cc1ccc(S(=O)(=O)N(C)C)cc1NC(=O)CN1c2cccc3cccc(c23)S1(=O)=O | – | inconclusive: 7.08 µM [inhibitor, single point]
13 | NC(=S)NC(=O)c1ccccc1 | – | inconclusive: 1.58 µM [inhibitor, single point]
14 | CCSc1nc(-c2cccs2)nc2ccccc12 | inactive: 148% [at 102 µM] | –
15 | O=C(c1ccc2ccccc2c1)N1CCCC1 | – | inconclusive: 0.631 µM [inhibitor, partial curve, poor fit]
16 | N#CC1(NC(=O)CSc2nnc(Nc3ccccc3F)s2)CCCC1 | – | inconclusive: 7.08 µM [inhibitor, single point]
17 | COc1ccccc1NC1=CC(=O)CC(c2ccccc2)C1 (stereo not drawn) | – | inconclusive: 3.16 µM [inhibitor, full curve]
18 | CCn1c(=S)sc2c(=O)n(CC(=O)Nc3cc(OC)ccc3OC)c(C)nc21 | inactive: 13.4% [at 102 µM] | –
19 | COc1cccc(/C=N/NC(=O)CCCc2ccc(OC)c(C)c2)c1 | inactive: 5.01% [at 102 µM] | –
20 | Cc1ccc2c(=O)cc(C(=O)Nc3c(C)n(C)n(-c4ccccc4)c3=O)oc2c1 | – | inconclusive: 11.2 µM [inhibitor, partial curve]
21 | CCOc1ccc(-c2nc(CSc3nnc(C)s3)cs2)cc1OC | – | inconclusive: 3.55 µM [inhibitor, partial curve, poor fit]
22 | CSc1cccc(N2CC(C(=O)NCCN3C(=O)S/C(=C\c4cccnc4)C3=O)CC2=O)c1 (stereo not drawn) | – | inconclusive: 50.1 µM [inhibitor, partial curve]

Row | SMILES | activity, negative = inhibition | Potency
23 | COc1cc(/C=C2\C(=N)N3N=C(C(C)C)SC3=NC2=O)ccc1OCCOc1ccc(NC(C)=O)cc1 | – | inconclusive: 79.4 µM [inhibitor, single point]
24 | COc1ccc(NC(=O)/C(Cl)=C(/Cl)S(=O)(=O)Cc2ccc(C)cc2)cn1 | – | active: 44.7 µM
25 | Brc1ccccc1-n1nnc(-c2ccnc3ccccc23)n1 | inconclusive: -87.6% [inhibitor] | –
26 | COc1cccc(NC(=O)CN(C)S(=O)(=O)/C=C/c2ccccc2)c1 | inactive: 12.8% [at 12.7 µM] | –
27 | C/C(=N\Nc1cccc(C(=O)O)c1)c1ccc(Cl)s1 | – | active: 22.4 µM
28 | Cc1ccc2nc(-c3ccccc3)c(CN3CCSCC3)n2c1 | – | inconclusive: 44.7 µM [inhibitor, partial curve, poor fit]
29 | CC(C)Cn1c(-c2cccc(Br)c2)nc2ccccc21 | inactive: 9.08% | –
30 | O=C(NC1(C(F)(F)F)C(=O)Nc2c1c(=O)[nH]c(=O)n2-c1ccc(F)cc1)c1cccnc1 (stereo not drawn) | inconclusive: -52.3% [inhibitor] [at 0.501 µM] | –
31 | COc1cc2nc(SCc3ccc(C)cc3)n3nc(CCn4nc(C)cc4C)nc3c2cc1OC | – | inconclusive: 8.91 µM [inhibitor, partial curve, poor fit]
32 | COc1cc(Cl)ccc1OCc1cc(C(=O)N(C)Cc2cccc3cnccc23)no1 | – | inconclusive: 15.8 µM [inhibitor, full curve]
33 | O=C(NN1C(=O)c2ccccc2NC1c1ccco1)c1ccc([N+](=O)[O-])cc1 (stereo not drawn) | inactive: 9.64% [at 102 µM] | –
34 | COC(=O)C1=C(C)NC(=O)NC1c1cccc(OC)c1OCc1ccccc1 (stereo not drawn) | – | inconclusive: 20 µM [inhibitor, partial curve]
35 | Cc1ccc(-c2cc(C(=O)N/N=C/c3c(C)nn(C)c3C)c3ccccc3n2)cc1C | – | inconclusive: 89.1 µM [inhibitor, single point]
36 | C/C(=N\NC(=S)Nc1ccccc1C)c1ccc(O)cc1 | – | active: 35.5 µM
37 | O=C(COC(=O)c1cncc(Br)c1)Nc1ccc(F)c(F)c1F | – | inconclusive: 63.1 µM [inhibitor, partial curve, poor fit]
38 | COC(=O)Cn1c(=NC(=O)c2nc3ccccc3s2)sc2cc(S(C)(=O)=O)ccc21 | – | inconclusive: 3.55 µM [inhibitor, full curve]
39 | Nc1nc(SCC(=O)Nc2ccc(Cl)c([N+](=O)[O-])c2)n[nH]1 | inactive: -3.46% [at 12.7 µM] | –
40 | Cc1ccc(-c2nc(CS(=O)CC(=O)NCc3ccccc3)c(C)o2)cc1 (stereo not drawn) | – | active: 50.1 µM
41 | CC(=O)C1=C(O)C(=O)N(CCN2CCOCC2)C1c1ccccc1 (stereo not drawn) | inconclusive: -105% [inhibitor] | –
42 | CC1(C)CC2CC(C)(CN2C(=S)NC(=O)c2ccccc2Cl)C1 (stereo not drawn) | – | inconclusive: 89.1 µM [inhibitor, single point]
43 | Cc1ccc2c(c1)c1cccc3c1n2CCN3CCC(N)=O | – | inconclusive: 1.12 µM [inhibitor, partial curve, poor fit]
